Assay results published in PubChem BioAssay AID1461 (National Center for Advancing Translational Sciences (NCATS), 2008).
Among all 220,000 compounds or so, about 2,300 (1%) were called active. The shares of active, inactive and inconclusive entries below differ from those in the screen. Calls follow the shape of the dose curve; as a rule, active = well fitted inhibition curve with a large enough effect; inconclusive = small, poorly fitted or top-dose-only effect, or effect the other way; inactive = no such curve, though single readings can be large or run the other way. No potency is given beside an inconclusive call; the fits are too rough.

molecular target: Neuropeptide S receptor (Homo sapiens) (UniProt Q6W5P4); assay: qHTS Assay for Antagonists of the Neuropeptide S Receptor: cAMP Signal Transduction; settings: CHO-NPSR cells, cAMP TR-FRET, antagonist mode; series mostly up to 38.3 µM; also: nearly all actives have a fitted effect of over 50% in size
UniProt Q6W5P4, sequence (Q6W5P4 whole entry, looked up): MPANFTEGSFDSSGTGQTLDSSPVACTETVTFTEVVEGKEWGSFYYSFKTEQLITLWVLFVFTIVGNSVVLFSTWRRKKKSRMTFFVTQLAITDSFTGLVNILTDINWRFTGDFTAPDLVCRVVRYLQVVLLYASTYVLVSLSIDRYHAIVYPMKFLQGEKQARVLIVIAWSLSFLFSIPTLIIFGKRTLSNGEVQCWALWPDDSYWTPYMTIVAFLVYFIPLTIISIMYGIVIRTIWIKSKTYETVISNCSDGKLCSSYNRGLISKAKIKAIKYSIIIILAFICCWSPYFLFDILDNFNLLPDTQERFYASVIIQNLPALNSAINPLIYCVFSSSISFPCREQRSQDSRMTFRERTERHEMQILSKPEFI
Potency is read from the fitted curve at half-maximal effect; tags tell the direction and shape of the fitted curve.

Question: For `CCCCOc1ccc(-c2c(C(=O)Nc3ccccc3)c(C)[nH]c(=S)c2C#N)cc1`, which Potency is on record?
Answer: active: 10 µM

Question: How did the Potency turn out when `COc1cccc(CN2C[C@]34C=C[C@@H](C[C@@H]3S2(=O)=O)O4)c1` was run?
Answer: inactive

Question: For `CC(=O)c1sc(-c2ccccc2)cc1N`, which Potency is on record?
Answer: inactive

Question: How did the Potency turn out when `O=C(Nc1cccc(S(=O)(=O)Nc2ccc(Cl)cc2)c1)c1ccc(Cl)nc1` was run?
Answer: inconclusive [inhibitor, single point]

Question: How did the Potency turn out when `CCOC(=O)CC1C(=O)NCCN1c1nc2c(C)cccn2c(=O)c1/C=C1\SC(=S)N(C(C)CC)C1=O` (configuration not stated) was run?
Answer: active: 12.6 µM

Question: How did the Potency turn out when `Cc1cc(C(F)F)n2nc(C(=O)Nc3sc4c(c3C#N)CCC(C)C4)nc2n1` (configuration not stated) was run?
Answer: inactive

Question: For `O=C(CCS(=O)(=O)c1ccc(Cl)cc1)Oc1ccc2c(c1)OCO2`, which Potency is on record?
Answer: inconclusive [inhibitor, partial curve]

Question: Which Potency does the source give for `Oc1ccccc1-n1c(-c2ccccc2)ccc1-c1ccccc1` here?
Answer: inactive

Question: How did the Potency turn out when `CCOC(=O)Cn1nnnc1C(C(C)C)N(Cc1cc2c(C)cc(C)cc2[nH]c1=O)C1CCCC1` (configuration not stated) was run?
Answer: inconclusive [inhibitor, single point]

Question: With `C/C=C/c1ccc(OCCCNC(C)CC)c(OC)c1` (configuration not stated) as the molecule, how does the Potency read?
Answer: inactive

Question: For `Cc1cccc(C)c1NC(=O)CSc1nnnn1-c1ccc(C(=O)O)cc1`, which Potency is on record?
Answer: inconclusive [inhibitor, partial curve, poor fit]

Question: With `COc1cccc(C(=O)N/N=C/c2cn[nH]c2-c2ccc(OC)cc2OC)c1` as the molecule, how does the Potency read?
Answer: inconclusive [inhibitor, single point]

Question: For `CN(CC(=O)Nc1ccccc1-c1ccccc1)Cc1ccccc1Cl`, which Potency is on record?
Answer: inconclusive [inhibitor, single point]

Question: For `O=C(Nc1ccc(-c2noc(-c3ccccc3F)n2)cc1)c1cccs1`, which Potency is on record?
Answer: inconclusive [inhibitor, single point]

Question: For `O=C(O)C1CCCCC1C(=O)Nc1cc(C(F)(F)F)ccc1Cl` (configuration not stated), which Potency is on record?
Answer: inactive

Question: With `Oc1c(CN2CCN(c3ccccn3)CC2)cc(Cl)c2cccnc12` as the molecule, how does the Potency read?
Answer: inconclusive [inhibitor, full curve, poor fit]

Question: With `CC(C)CCn1c(O)c(N=NC(=O)c2ccco2)c2ccccc21` as the molecule, how does the Potency read?
Answer: inactive

Question: `Cc1ccc(C(=O)NCCN2CCCC2)cc1` was tested. Which Potency did it give?
Answer: inconclusive [inhibitor, partial curve, poor fit]

Question: How did the Potency turn out when `O=c1c2ccccc2nc(SCc2ccc(F)cc2Cl)n1CCCN1CCOCC1` was run?
Answer: inconclusive [inhibitor, single point]

Question: Which Potency does the source give for `Cc1ccc(N(O)C(=O)OCCNC(=O)Nc2ccccc2)cc1` here?
Answer: inconclusive [inhibitor, partial curve]

Question: Which Potency does the source give for `CC1=C(C(=O)Nc2ccccc2)C(c2ccc(C)o2)n2c(s/c(=C\c3ccco3)c2=O)=N1` (configuration not stated) here?
Answer: active: 12.6 µM

Question: How did the Potency turn out when `C=CCn1c(=O)n(CCC#N)c(=O)n(CCC#N)c1=O` was run?
Answer: inconclusive [inhibitor, single point]

Question: How did the Potency turn out when `O=C(NCCO)C1CCN(C(=O)c2ccc(-c3ccccc3)cc2)CC1` was run?
Answer: inactive

Question: How did the Potency turn out when `O=C(COc1cccc2ccccc12)N1CCN(c2ccccc2)CC1` was run?
Answer: inconclusive [inhibitor, single point]

Question: How did the Potency turn out when `CN(C)c1ccc(NC(=O)CC2NCCNC2=O)cc1` (configuration not stated) was run?
Answer: inconclusive [inhibitor, partial curve]

Question: For `O=C(Nc1ccc(Cl)cc1)Nc1ccc(N2CCCC2)c(S(=O)(=O)Nc2ccccc2Cl)c1`, which Potency is on record?
Answer: inconclusive [inhibitor, single point]

Question: `Cn1c(=O)cc(SCC(=O)NCCCN2CCN(c3ccccc3F)CC2)c2ccccc21` was tested. Which Potency did it give?
Answer: inconclusive [inhibitor, single point]

Question: `CC(C)(C)NCC(O)(c1ccc(Cl)cc1)c1ccc(Cl)cc1` was tested. Which Potency did it give?
Answer: inconclusive [inhibitor, single point]

Question: How did the Potency turn out when `O=C1OC(c2cccs2)=N/C1=C\c1ccc(-c2cccc(Cl)c2)o1` was run?
Answer: inconclusive [inhibitor, single point]

Question: How did the Potency turn out when `COc1ccc(/C=N/NS(=O)(=O)c2ccccc2)cc1OC(=O)c1ccc(C)cc1` was run?
Answer: inconclusive [inhibitor, single point]

Question: For `Cc1ccc(-c2nc3ncccc3o2)cc1NC(=O)c1cc2ccccc2o1`, which Potency is on record?
Answer: inconclusive [inhibitor, single point]

Question: For `Cc1sc2ncnc(OCC(=O)c3ccc(S(=O)(=O)N4CCCC4)cc3)c2c1C`, which Potency is on record?
Answer: inconclusive [inhibitor, single point]

Question: How did the Potency turn out when `O=C(c1cccs1)N1CCN(C(=O)C2CCCO2)CC1` (configuration not stated) was run?
Answer: inconclusive [inhibitor, single point]

Question: How did the Potency turn out when `COc1ccccc1NC(=O)CN(c1ccc(C23CC4CC(CC(C4)C2)C3)cc1)S(C)(=O)=O` was run?
Answer: inconclusive [inhibitor, single point]

Question: Which Potency does the source give for `CCC(=O)N1CCN(c2ccc(Cl)cc2NC(=O)c2ccc(N3CCCC3)c([N+](=O)[O-])c2)CC1` here?
Answer: inconclusive [inhibitor, partial curve]

Question: Which Potency does the source give for `CC1=Nc2ccccc2N=C(NC(=O)c2ccccc2)C1c1ccc(Cl)cc1` (configuration not stated) here?
Answer: inconclusive [activator, single point]

Question: `O=C1c2ccccc2C(=O)N1CCCCN(C(=O)c1cc([N+](=O)[O-])ccc1Cl)c1ccc(Cl)cc1` was tested. Which Potency did it give?
Answer: inactive

Question: With `O=C1c2ccccc2C(=O)C12Cc1ccccc1N1CCN(c3ccccc3)CC12` (configuration not stated) as the molecule, how does the Potency read?
Answer: inconclusive [inhibitor, single point]

Question: How did the Potency turn out when `N#C[C@H]1[C@H](c2ccccc2)[C@](C#N)(C(=O)c2ccccc2)[C@@H]2C=Cc3ccccc3N21` was run?
Answer: inconclusive [inhibitor, partial curve]

Question: For `Cc1ccc(C(C)C)c(OCc2nnc3n2CCCCC3)c1`, which Potency is on record?
Answer: inconclusive [inhibitor, single point]

Question: How did the Potency turn out when `CCOC(=O)c1nn(-c2ccccc2F)c(-c2ccccc2)c1C(=O)c1ccccc1` was run?
Answer: inconclusive [inhibitor, partial curve]

Question: With `O=C(OCCN1C(=O)c2ccccc2C1=O)c1ccc(S(=O)(=O)N2CCCCCC2)cc1` as the molecule, how does the Potency read?
Answer: inconclusive [inhibitor, single point]

Question: How did the Potency turn out when `CC(C)(C)n1nnnc1C(c1cccs1)N(Cc1ccccc1)Cc1cccnc1` (configuration not stated) was run?
Answer: inconclusive [inhibitor, single point]

Question: For `Cc1cc(Cl)ccc1OCC(=O)NCCC(=O)O`, which Potency is on record?
Answer: inconclusive [inhibitor, single point]

Question: Which Potency does the source give for `N#CC(/C(=N/S(=O)(=O)c1cccs1)c1ccccc1)c1nc2ccccc2[nH]1` (configuration not stated) here?
Answer: inconclusive [inhibitor, single point]

Question: For `Clc1ccc(OCCCNCc2ccccc2)c(Br)c1`, which Potency is on record?
Answer: inconclusive [inhibitor, single point]

Question: For `CSc1nc2c(cnn2-c2ccccc2)c(=O)n1N`, which Potency is on record?
Answer: inactive

Question: For `Cc1cc(O)ccc1C1(c2ccc(O)cc2C)OC(=O)c2ccccc21`, which Potency is on record?
Answer: inconclusive [inhibitor, single point]

Question: Which Potency does the source give for `FC(F)(F)c1nc2ccccc2nc1N/N=C/c1c(Cl)cccc1Cl` here?
Answer: inconclusive [inhibitor, partial curve, poor fit]

Question: For `N#C/C(=C\c1ccc(-c2ccc(C(=O)O)cc2)o1)c1nc2ccccc2[nH]1`, which Potency is on record?
Answer: inconclusive [activator, partial curve]

Question: How did the Potency turn out when `CC(C)c1nc(SCC(=O)N2CCCC2)c2ccccc2n1` was run?
Answer: inconclusive [inhibitor, full curve, poor fit]

Question: With `Clc1ccc(Cc2nn3c(Cn4nnc5ccccc54)nnc3s2)cc1` as the molecule, how does the Potency read?
Answer: inactive

Question: For `CCOC(=O)c1ccc(NC(=O)c2nc[nH]c2C(=O)N[C@@H](CC(C)C)C(=O)OCc2ccccc2)cc1`, which Potency is on record?
Answer: inconclusive [inhibitor, single point]

Question: With `Cc1cc(N)n2nc(-c3ccc(C(C)(C)C)cc3)cc2n1` as the molecule, how does the Potency read?
Answer: inconclusive [inhibitor, single point]

Question: `COC(=O)CSc1nc(N)c2c3c(sc2n1)C(c1ccccc1)SC(c1ccccc1)C3` (configuration not stated) was tested. Which Potency did it give?
Answer: active: 12.6 µM

Question: For `O=C(OC(C(=O)NCc1ccc2c(c1)OCO2)c1ccc(Cl)cc1)c1ccco1` (configuration not stated), which Potency is on record?
Answer: inactive

Question: `c1ccc(-c2ccc(-c3nccc4ccccc34)[nH]2)cc1` was tested. Which Potency did it give?
Answer: inconclusive [activator, single point]

Question: How did the Potency turn out when `NC(=O)c1sc(=S)n(-c2ccc(Br)cc2)c1N` was run?
Answer: inactive

Question: `COCCn1c(=NC(=O)c2nc3ccccc3s2)sc2cc(S(C)(=O)=O)ccc21` was tested. Which Potency did it give?
Answer: inconclusive [activator, single point]

Question: With `COCCNc1nc(SCc2ccccc2)nc2sc3c(c12)CCC3` as the molecule, how does the Potency read?
Answer: inconclusive [inhibitor, single point]

Question: `CC(=O)c1sc(NC(=O)COc2ccc(Cl)cc2Cl)nc1C` was tested. Which Potency did it give?
Answer: inconclusive [inhibitor, single point]

Question: For `CCN(C(=O)CSc1ccc2c(c1)OCCO2)C1CCS(=O)(=O)C1` (configuration not stated), which Potency is on record?
Answer: inconclusive [inhibitor, single point]

Question: `O=C(/C=C/c1ccco1)Oc1cc(Br)cc(/C=N/NC(=O)c2ccccc2O)c1` was tested. Which Potency did it give?
Answer: inactive

Question: With `COc1ccc(CN2CCOC2=O)cc1OC` as the molecule, how does the Potency read?
Answer: inactive

Question: `CCNc1nc(NCc2ccccc2)nc(Oc2ccc(=O)[nH]n2)n1` was tested. Which Potency did it give?
Answer: inconclusive [inhibitor, single point]

Question: For `O=c1cc(-c2ccccc2)nc2c(-c3ccccc3)c(C(F)(F)F)[nH]n12`, which Potency is on record?
Answer: inconclusive [activator, partial curve]

Question: With `O=C(CN(C(=O)CCC(=O)Nc1nccs1)c1ccc(F)cc1)NCc1ccco1` as the molecule, how does the Potency read?
Answer: inconclusive [activator, partial curve]
